Measured values: PubChem BioAssay AID686970 (National Center for Advancing Translational Sciences (NCATS), 2013)
Values joined by “and” are separate entries in the source; they are usually repeats but may differ in a detail not shown here. Identical values can stand only once. About 6,000 (1.7%) of roughly 360,000 compounds were called active. Inconclusive means that the source gave no clear call. Such entries were picked first, then a sample of the others. Calls come from the whole dose curve; as a rule, active = well fitted cell-killing curve with a large enough effect; inconclusive = small, poorly fitted or top-dose-only effect, or effect the other way; inactive = flat fitted curve, though single readings scatter. Potencies of inconclusive entries are left out as doubtful fits.

Test: qHTS for induction of synthetic lethality in tumor cells producing 2HG: qHTS for the HT-1080-NT fibrosarcoma cell line;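 note: NT is the 2HG producing partner of a matched IDH1 knockdown line; nearly all actives have a fitted effect of over 55% in size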;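 for activity, negative = less viability: 0% = DMSO-treated cells and -100% = media-only wells without cells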
Settings: HT-1080-NT fibrosarcoma viability, CellTiter-Glo ATP luminescence, 48 h; activity, negative = less viability: at 46.1 µM (top of the series) unless noted
Outline: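 Read-out is CellTiter-Glo luminescence after 10 minutes at room temperature, following 48 hours' compound treatment of HT-1080-NT cells (750 cells/well, RPMI, 5% FBS, 37 degrees C).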
Potency is the fitted concentration of half-maximal effect; tags give direction and shape of the fitted curve.

SMILES	Potency	activity, negative = less viability
CCSc1ccc(-c2cc(NC=O)c3ncc(-c4cccc(C(=O)N(C)C)c4)n3c2)cc1	inconclusive [cytotoxic, single point]	
CC(C)c1cccc(-c2ccc3c(c2)S(=O)(=O)c2cccc(C(=O)NCc4ccco4)c2C3=O)c1	inconclusive [cytotoxic, single point]	
O=C(OCc1ccccc1)/C(=C/c1ccc(Cl)cc1)NC(=O)c1ccccc1Cl	inconclusive [cytotoxic, single point]	
COc1ccc(C(NC(=O)C2CCN(CCCOc3ccccc3)CC2)c2cccs2)cc1 (stereo unspecified)	inconclusive [cytotoxic, single point]	
O=[N+]([O-])c1cc2cccnc2c2ncccc12	inconclusive [cytotoxic, single point]	
COc1cc(C2c3cc4c(cc3C(OC3OC5COC(c6cccs6)OC5C(O)C3O)C3COC(=O)C23)OCO4)cc(OC)c1O (stereo unspecified)	inconclusive [cytotoxic, full curve]	
Cc1ccc(-c2nc3ccccc3o2)cc1NC(=S)NC(=O)c1cc2ccccc2o1		inconclusive: -26.7% [cytotoxic]
COc1cccc(NC(=O)CSc2nnc(CNC(=O)c3ccccc3F)o2)c1	inconclusive [cytotoxic, partial curve]	
O=C1Nc2ccc([N+](=O)[O-])cc2OC1CCN1CCN(Cc2ccccc2)CC1 (stereo unspecified)	inconclusive [cytotoxic, single point]	
Cc1ccc(C)c(S(=O)(=O)NCc2ccc(C(=O)N3CCC(Cc4ccccc4)CC3)cc2)c1	inconclusive [cytotoxic, single point]	
O=C(NCCCN1CCN(c2ccc(F)cc2)CC1)Nc1ccc([N+](=O)[O-])cc1	inconclusive [cytotoxic, single point]	
Cc1cccc(-c2ccc3[nH]c4c(c3c2)CCN2C[C@H]3[C@H](C)ON(C)[C@H]3C[C@@H]42)c1	inconclusive [cytotoxic, single point]	
Cc1ccnc(NC(=O)c2cccc(NC(=O)Cc3ccccc3)c2)c1	inconclusive [cytotoxic, partial curve]	
Cn1c(=NN=Cc2ccccc2OCCO)sc2ccccc21	inconclusive [cytotoxic, partial curve, poor fit]	
CSc1nnc(NC(=O)c2nc(S(=O)(=O)Cc3ccccc3)ncc2Cl)s1	active: 20.6 µM	
CS(=O)(=O)n1nc(OC(=O)c2cccc3ccccc23)cc1N	inconclusive [cytotoxic, single point]	
CCC1(c2ccccc2)NC(=O)N(CC(=O)Nc2ccc(Cl)c(S(=O)(=O)N3CCCCC3)c2)C1=O (stereo unspecified)		inactive: -22.4%
C#CCn1c(S(=O)(=O)Cc2ccc(F)cc2)nc(-c2ccccc2)c1-c1ccccc1	inconclusive [cytotoxic, single point]	
COc1cccc(C(=O)Nc2ccc3c(cc2=O)[C@@H](NC(C)=O)CCc2cc(OC)c(OC)c(OC)c2-3)c1	active: 5.8 µM	
Cc1cccc(N=Cc2[nH]c3ccc(Br)c(Cl)c3c2O)c1	inconclusive [cytotoxic, single point]	
NC(=O)c1ccccc1N=Cc1ccc2ccccc2c1	inconclusive [cytotoxic, single point]	
O=C(COc1ccccc1)Nc1cccc(S(=O)(=O)N2CCCC2)c1		inactive: 3.97%

SMILES	Potency	activity, negative = less viability
CC(C)CC1NC(=O)c2cccnc2-n2c1nc1cc(F)c(F)cc1c2=O (stereo unspecified)		inactive: 11.2%
COc1ccc(CCNS(=O)(=O)c2cc(C(=O)O)c(Cl)cc2Cl)cc1		inactive: -0.46%
CC1CCc2c(sc3nc(C(C)(C)C)nc(N4CCN(C(=O)CCl)CC4)c23)C1 (stereo unspecified)	active: 11.6 µM	
Cc1cc(C)c2sc(NNC(=O)c3ccc(S(=O)(=O)N4CCc5ccccc5C4)cc3)nc2c1	inconclusive [cytotoxic, full curve]	
C(=C\c1nc(N2CCCCCC2)c2ccccc2n1)/c1ccccc1	inconclusive [cytotoxic, single point]	
Cc1ccc(C(=O)N2CCN(c3cccc(C)c3C)CC2)o1	inconclusive [cytotoxic, single point]	
O=C(Oc1c(CN2CCOCC2)cc(Cl)c2cccnc12)c1ccccc1F	inconclusive [cytotoxic, single point]	
COc1ccc(-c2ccc(CCC(=O)O)n2-c2ccccc2OC)cc1	active: 18.4 µM	
CCOC(=O)[C@]12CCCC=C1N(Cc1ccc3c(c1)OCO3)C(=O)[C@H](CC(=O)NCc1cccc(C(F)(F)F)c1)C2	active: 10.3 µM	
CCOc1ccc(-c2[nH]ncc2Oc2cccc(OC)c2)c(O)c1	inconclusive [cytotoxic, single point]	
CC(C)N1CCc2c(sc(NC(=O)c3cc(-c4cccs4)nc4ccccc34)c2C(N)=O)C1	inconclusive [cytotoxic, single point]	
CCOC(=O)CSC1=C(C#N)C(c2ccccc2OC)CC(=O)N1 (stereo unspecified)	inconclusive [cytotoxic, single point]	
COc1cccc(-c2nn(-c3ccc(F)cc3)cc2C(=O)NCC2CCCO2)c1 (stereo unspecified)		inactive: -6.12%
O=C(Nc1cccc(S(=O)(=O)N2CCCCC2)c1)Nc1ccc(Cl)cc1Cl	active: 20.6 µM	
CC(C)c1ccc(OCC(O)CNC(C)c2ccccc2)cc1 (stereo unspecified)	active: 23.1 µM	
CCCc1cc(C(=O)Nc2sc(C)c(C)c2C(=O)OCC)no1	inconclusive [rising, single point]	
CC1CN(S(=O)(=O)c2cccc(C(=O)Nc3ccc(N4CCCCC4)cc3)c2)CC(C)O1 (stereo unspecified)		inactive: 12.5%
Cc1ccc(CNc2nc(NC(C)C)nc3ccsc23)c(C)c1	inconclusive [cytotoxic, single point]	
CCOC(=O)N/N=C\c1ccc(-c2cc(Cl)ccc2Cl)o1		inactive: -22.4%
COCOCCn1cc(CN2CCS(=O)(=O)N(Cc3ccc(-c4ccc(Cl)c(Cl)c4)cc3)C(C(C)C)C2=O)nn1 (stereo unspecified)	inconclusive [cytotoxic, single point]	
Cc1ccc(C(=O)Oc2ccccc2N2C(=O)C3C4CCC(C4)C3C2=O)cc1 (stereo unspecified)	inconclusive [rising, single point]	
CC(C)(C)CC(C)(C)NCC(O)COCCOc1ccc(Br)cc1 (stereo unspecified)	inconclusive [cytotoxic, partial curve]	

SMILES	Potency	activity, negative = less viability
COc1ccccc1NC(=O)N1CCc2[nH]c3ccc(Cl)cc3c2C1	inconclusive [cytotoxic, single point]	
COc1ccc(NC(=O)[C@H](C)NC(=O)C2CCN(S(=O)(=O)c3ccc(OC)cc3)CC2)cc1		inactive: 9.52%
CCCn1cnc2c(Sc3c([N+](=O)[O-])ncn3C)nc(N)nc21		inactive: -3.65%
COc1ccc(OC)c(C(=O)NC2CCCc3c2cnn3-c2cc(C)cc(C)c2)c1 (stereo unspecified)	inconclusive [cytotoxic, single point]	
O=C(N/N=C/c1ccc([N+](=O)[O-])o1)c1ccc2c(c1)OCO2	inconclusive [cytotoxic, single point]	
CC(=O)c1ccc(N2CCN(Cc3cc(=O)n4c(-c5ccccc5)csc4n3)CC2)cc1	inconclusive [cytotoxic, single point]	
S=c1nc[nH]c2nc[nH]c12	active: 2.59 µM and active: 2.31 µM	
Cn1c(NCc2cc(Br)ccc2O)nc2ccccc21	inconclusive [cytotoxic, single point]	
COc1cccc(OC)c1NC(=O)c1ccc(-c2cc(Cl)ccc2Cl)o1	inconclusive [cytotoxic, partial curve, poor fit]	
COc1cccc(-c2ccc(NC(=O)C3CCCN(Cc4cccc(C)n4)C3)cc2)c1 (stereo unspecified)	inconclusive [cytotoxic, single point]	
O=C(Nc1ccc(F)c(Cl)c1)C1Cc2c(-c3cccc(F)c3)ccnc2O1 (stereo unspecified)	inconclusive [cytotoxic, single point]	
Cc1ccc(C2=N/C(=C/c3cccs3)C(=O)N2Nc2ccccc2)cc1	inconclusive [cytotoxic, single point]	
Cc1cccc(/C=N/NC(=O)c2cc(Br)ccc2OCc2ccccc2)n1	inconclusive [cytotoxic, partial curve]	
Nc1[nH]c(C(=O)c2ccccc2)c(-c2ccccc2C(F)(F)F)c1C(=O)NCCc1c[nH]c2ccccc12	inconclusive [cytotoxic, single point]	
COc1ccc(C(=O)C[C@@H]2OC[C@H](Cc3ccccc3)N2S(=O)(=O)c2ccc(C)cc2)cc1OC		inactive: 5.83%
Cc1ccccc1C(=O)N1CCC(C(=O)NCCc2ccc(S(N)(=O)=O)cc2)CC1		inactive: 21.1%
CN(C)CCNC(=O)c1cccc(-c2cnc3c(NC=O)cc(-c4ccccc4F)cn23)c1	inconclusive [cytotoxic, single point]	
O=C(O)c1ccc(SCc2ccccc2)nc1		inactive: -10.1%
COc1ccc(C2NC(=O)NC(C)=C2C(=O)OC2CCC(C)CC2)cc1 (stereo unspecified)		inactive: -3.81%
CCCCc1nc(N2CCN(C(=O)c3ccco3)CC2)c(C#N)c2c1CCCC2	inconclusive [cytotoxic, single point]	
O=C(c1coc(=O)c(Br)c1)N1CCOCC1		inactive: 5.74%
CCN(CC)S(=O)(=O)c1cccc(C(=O)N/N=C/c2ccc(O)c(O)c2O)c1	inconclusive [cytotoxic, single point]	
